Experimental data from the supplement of paper PMC10126150.
Values marked as one replicate rest on one cluster of the flow cell; about a third of the high ones do not repeat.

Test system: ATP
Test: switch fluorescence ratio, 500 uM ATP over buffer (Cy3 cluster intensity, sum of 5 cycles each) (fold (ratio)); higher = stronger signal-on switching upon ATP binding; sequences stand for … in TCGTCGGCAGCGTCAGATGTGTATAAGAGACAGTTTTTTTTTTTTTTTTTTTTTTTTT…TC
Conditions: aptamer strand: ATP DNA aptamer (quencher-CACCTGGGGGAGTATTGCGGAGGAAGG + anchor), 100 nM annealed; ATP concentration: 500 uM; one replicate
In short: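 Between each of five buffer/ATP cycles, the flow-cell was stripped with NaOH and re-annealed. Each cycle imaged Cy3-labelled switching-strand clusters, annealed to 100 nM quencher-labelled ATP aptamer on a modified Illumina MiSeq flow-cell, first in selection buffer and then after 15 min with 500 uM ATP at 22 °C. The fluorescence ratio is summed target-cycle over summed buffer-cycle Cy3 intensity per cluster, averaged per switch-domain sequence, with clusters outside 100-1000 RFU excluded.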
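Further: ATP exposure 15 min at 22 °C before imaging.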

Row | Sequence | switch fluorescence ratio
1 | TGCCACCGCT | 1.17
2 | GACATTTTGA | 0.998
3 | GGGTCGAAGT | 1.01
4 | AGGTAACGCT | 0.999
5 | TAGTCATCAA | 0.976
6 | TATTGTCAT | 0.979
7 | TCAGTGTTAC | 0.984
8 | AGTTCAAGAG | 1.01
9 | TTTTCTTCAG | 0.998
10 | ATTTTCGTAT | 0.98
11 | CTTTGCCTTA | 0.99
12 | GGATTTGCGG | 0.941
13 | TAATGAAAG | 1.01
14 | TCTCTGGTGT | 1.17
15 | AGAAGTATCC | 1.11
16 | GGGCCGCCGG | 1.07
17 | TGGAATACGG | 1.3
18 | ATACAGTCT | 1
19 | TGTGTCATAT | 0.974
20 | ACAAAAACGA | 1.38
21 | GCTAGGGAAT | 1.05
22 | ATCCTCGCCG | 1.01
23 | GCCTCCTTGT | 1.02

Row | Sequence | switch fluorescence ratio
24 | CGTGTCGGCA | 1.01
25 | GGTTATCGTT | 0.998
26 | GCCAGGACTT | 1.02
27 | CATATATTAA | 0.996
28 | AAGATGCGGG | 1.02
29 | GGGGCCCCAC | 1.02
30 | ACGCTACTAT | 1.38
31 | GTGAAATGTT | 0.972
32 | AGTATTGGTC | 0.949
33 | TGTCCGTAGC | 2.53
34 | TGGTTGTAGA | 0.989
35 | CAGTTACAC | 1.06
36 | AGCTACCAGG | 1.49
37 | GATCAGGTAA | 0.955
38 | GCTCTAGGG | 1
39 | ATGATTAAGC | 0.99
40 | GCACCAAGTA | 1.1
41 | AGAGAAATCG | 1.06
42 | CCGCAGTTGG | 4.51
43 | CTTATGGCGG | 0.964
44 | GGGCGCTTGG | 1.02
45 | TTTGAGCGCG | 1.01
46 | CCGACAGGAT | 4.16

Row | Sequence | switch fluorescence ratio
47 | CCTAGTTCGA | 0.972
48 | GAGCGCCAGT | 0.98
49 | ATTCGCCTCA | 0.988
50 | CATTTGATGG | 0.997
51 | AGATCGGATG | 1.01
52 | CATTTTGC | 1
53 | CTAGAACAGA | 0.974
54 | GCCCCAAGCG | 1.05
55 | ATGATATAAT | 1
56 | GGTTGCGGAA | 1.03
57 | GGGCGGGGCC | 0.982
58 | CCTTGATACA | 1.04
59 | CCACGATTAT | 1.03
60 | GTCACGCCCC | 1.28
61 | TGCCACAATT | 0.991
62 | AGATGTTTG | 1.04
63 | GAGGCCAAG | 0.99
64 | GATAAAGAGA | 0.976
65 | TAACACGTTA | 1.24
66 | TTTACATCTG | 1.09
67 | ATAGTAATAT | 1.08
68 | AAGAGGCCTG | 0.952
69 | AAATCGAGCA | 1.03

Row | Sequence | switch fluorescence ratio
70 | ACTGGTGTGT | 0.998
71 | TCACGTTCAT | 1.05
72 | AATTCTACTA | 1.03
73 | CTGGGTTCAC | 1.01
74 | GATTCAGAAC | 0.959
75 | AATCTGTGGA | 1.01
76 | GCAAGAACGT | 1.02
77 | AGTAACGAAG | 1.02
78 | CAGTTTGACT | 1.04
79 | TTTAGATCGT | 1.01
80 | AAAAAGCGTG | 0.986
81 | GGTCTTTGTC | 1.04
82 | AAAAACTTGG | 1.08
83 | CGTTCTGTAA | 1.07
84 | GATTTATGCG | 0.977
85 | ACGGTAGCGG | 1.01
86 | GAGAAGAG | 1.04
87 | GAGTGCAAGT | 0.998
88 | AGCCAGACCG | 1.01
89 | TTCTTTGCGG | 1.03
90 | AACGGGTCTT | 1.03
91 | CATGTTGTAA | 1.03
92 | GATTCAACTT | 0.984

Row | Sequence | switch fluorescence ratio
93 | AGATTACCAG | 1.04
94 | CCGTGCGGGA | 2.71
95 | CTCCTTAGGG | 1.1
96 | ATGCCGAAGC | 1.1
97 | TCTCTTTATC | 1.1
98 | TAGCAGGGGT | 1.07
99 | AGTTTGTGCG | 1.11
100 | CCAACCCTAC | 2.12
101 | CGGGGCCGC | 0.974
102 | TACGCTGGTG | 1.05
103 | AGAGACGGAT | 1.01
104 | ATGCATAGGT | 1.02
105 | TGAGTATTTC | 0.977
106 | GATTAATCGC | 1.01
107 | CGACTCTTAA | 1.09
108 | GCCCCTTTGT | 1.01
109 | GTCATCGAAG | 0.994
110 | GGGACCAGGC | 1.07
111 | CTATAGAGGT | 0.965
112 | TTCCCTTAAC | 1.03
113 | TATTAGCAGA | 1.02
114 | TGTTGGTTGG | 0.969
115 | ACGTCATTAC | 4.19

Row | Sequence | switch fluorescence ratio
116 | AAGCCGAGTT | 0.976
117 | AGAGTAATT | 0.965
118 | CCGCGCTAGT | 1.64
119 | TAATAAGGAC | 1.08
120 | TTATTTAACT | 0.985
121 | TTCTAGTTTT | 0.979
122 | AGTGAGAAGG | 1
123 | TCTAAGAGTG | 1
124 | GAGAAGCACC | 1.18
125 | GCGTGATATA | 1.01
126 | CTTTTGTGTA | 0.965
127 | AGGGTAATAG | 1.04
128 | ATTCTTATCA | 0.949
129 | GCCCACATTG | 1.05
130 | GCGCTATAGA | 1.01
131 | CACGTCCCCA | 1.06
132 | ATTGGAGAGT | 0.964
133 | GTCGATATTG | 0.973
134 | TTGACGTCCG | 0.945
135 | AAGTTGCGAC | 0.982
136 | TATGAGAAG | 1.01
137 | CGTTAGAGTT | 1.03
138 | TGTTAGTTCG | 0.973

Row | Sequence | switch fluorescence ratio
139 | GCCCCAGCGG | 1.19
140 | CGAATAAGCA | 1.02
141 | ATACGTATGT | 1.01
142 | GCTAGGTTGT | 0.996
143 | TCTCTATGGC | 1.79
144 | AGGGTATGGA | 1
145 | CCCGTTCTCT | 1.01
146 | CAACCATTAT | 1.01
147 | GATGCGTATT | 0.975
148 | CTGTTTATCC | 1.02
149 | CAATGGGTGG | 1.07
150 | ACTGTCAAAT | 1.01
151 | TTGGGCCGAA | 0.982
152 | CCAATAAATG | 0.98
153 | CTAACTAACT | 1.11
154 | ACATATGTCT | 0.982
155 | AAATGTGCGC | 1.01
156 | CTATGGGTCT | 0.972
157 | GACGCTGTCT | 1.02
